This passage reports displacement results from PubChem BioAssay AID1240 (Sanford-Burnham Center for Chemical Genomics, 2008).

SMILES strings stand for the structures. In all, about 50,000 compounds went through this assay and about 800 (1.6%) showed an effect of 50% or more. Some of the results follow.

The assay deals with Bcl-2-like protein 10 (Homo sapiens) (UniProt Q9HD36). The assay is described as follows: TR3 peptide-Bcl-B binding displacers, biochemical primary FP assay, phenotype converters (AID 1240).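 Further: 0% = Bcl-B with tracer peptide and DMSO and 100% = tracer peptide lacking Bcl-B.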 To be noted: GST-Bcl-B / FITC-TR3 peptide fluorescence polarization; stronger effect = higher value; compound at 3.75 mg/L.
Chain of UniProt Q9HD36 (Q9HD36 whole entry, looked up): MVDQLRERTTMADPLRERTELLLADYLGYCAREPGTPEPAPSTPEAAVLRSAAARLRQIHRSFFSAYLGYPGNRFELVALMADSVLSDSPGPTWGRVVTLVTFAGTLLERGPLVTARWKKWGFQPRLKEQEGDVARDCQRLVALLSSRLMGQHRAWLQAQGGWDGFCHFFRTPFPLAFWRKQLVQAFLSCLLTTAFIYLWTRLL
For `CCOc1ccc(NC(=S)NCc2ccco2)cc1`, the displacement came to 8.5%.

Turning to `COc1cc(/C=C2/C(=O)NC(=O)N(c3cc(C)cc(C)c3)C2=O)cc(Br)c1OC`, the displacement was determined as 10.9%. Under `COc1ccc(OC)c(/C=C2\SC(=S)N(NC(=O)c3ccccc3)C2=O)c1` stands 1.8%; under `CC(C)=NNc1nnc2c(n1)[nH]c1ccccc12`, 15.9%; under `COC(=O)C1=C(C)N=c2s/c(=C\c3ccc(N(C)C)cc3)c(=O)n2C1c1ccccc1Cl` (centres undefined), 6.5%. Under `O=C(CSc1ncn[nH]1)Nc1ccc(Cl)c(Cl)c1` stands 15.5%. For the compound `CCC1(C(O)(C#CCN2CCCCC2)c2ccccc2)CCCC1` (centres undefined), the displacement was 3%. For the compound `O=C1C(=O)N(c2cccnc2)C(c2ccc3c(c2)OCO3)/C1=C(\O)c1ccccc1` (centres undefined), the displacement was -7%. Under `CCOC(=O)c1c(NC(=O)CC2SC(N)=NC2=O)sc2c1CCCC2` (centres undefined) stands 6.3%. To `COc1cc2c(C)nc3c(cnn3-c3ccccc3)c2cc1OC` belongs -5.8%. With `O=C(COc1ccccc1)Nc1cc(C(F)(F)F)cc(C(F)(F)F)c1`, the displacement came to 8.5%. Under `NC1=NC(=O)C(CC(=O)Nc2ccc(Cl)cc2)S1` (centres undefined) stands 0.4%; under `O=c1c2ccccc2nc(Cc2ccccc2)n1Nc1ccccc1`, -11.2%; under `O=C(Nc1ccc2nn(-c3ccc(Cl)cc3)nc2c1)c1ccccc1`, -1.9%. Under `COC(=O)C1=C(C)N(C)C(=O)/C1=C\c1ccccc1Cl` stands 18.1%.

As to `CCc1cc2c(=O)c(-c3nc4ccccc4n3C)coc2c(CN2CCN(C)CC2)c1O`, the displacement was 40.6%. Consider `O=C(CSc1nnc(-c2ccco2)n1-c1ccccc1)NCCOc1ccccc1`, for which the displacement turned out to be 7.5%.

As to `COc1ccc(CCNC(=O)c2cccc3ccccc23)cc1OC`, the displacement is -11.3%. To `O=C1CSC(c2cn(-c3ccccc3)nc2-c2ccc(Cl)cc2)N1Cc1ccccc1` (centres undefined) belongs -6.5%. Take `O=C1NCc2ccccc2-c2ccccc21`: the displacement was determined as 8.6%. `CC(C)CCNCC(O)Cn1c2ccc(Br)cc2c2cc(Br)ccc21` (centres undefined): the displacement is 5.2%. Under `CCCC(=O)Nc1ccc(C(=O)/C=C/c2ccc(Cl)cc2Cl)cc1` stands -10.9%.

As for `COc1cc(C(=O)NCCOc2ccc(C)cc2)cc(OC)c1OC`, the displacement is -3.8%.

For the compound `C=CCN1C(=O)/C(=C\c2cc(I)c(O)c(OC)c2)C(=O)NC1=S`, the displacement was -1%. Regarding `O=C(N/C(=C\c1cn(-c2ccccc2)nc1-c1ccccc1)C(=O)N1CCOCC1)c1ccccc1`, the displacement was 12.8%. Under `CCn1c2ccccc2c2cc(C#N)c(N)nc21` stands 11.4%; under `CC(C)CC(=O)Nc1cccc(Cl)c1Cl`, -2.6%.

Regarding `COc1cccc(C(=O)NCCNc2ccc(C(F)(F)F)cc2[N+](=O)[O-])c1`, the displacement was -8.9%.

As for `CCOC(=O)C1(P(=O)(c2ccccc2)c2ccccc2)CCC1`, the displacement is 1.4%. To `Cc1cccc(N2CCC(N=CN3CCCCC3)=N2)c1` belongs 10.5%. Under `N#C/C(=C/c1cccc(O)c1)C(=O)Nc1cccc(Br)c1` stands -4.3%; under `Cc1cccc(NC(=O)C2CC2(c2ccccc2)c2ccccc2)c1C` (centres undefined), 4.1%; under `COC(=O)c1ccccc1NC(=O)CN(c1ccc(C)c(Cl)c1)S(C)(=O)=O`, 5.1%. To `CC1=NN(c2cccc(Cl)c2)C(=O)/C1=C\c1c(C)[nH]n(-c2ccccc2)c1=O` belongs -9.1%; to `CC1=C(C(=O)OCc2ccc3c(c2)OCO3)C(c2ccc(N(C)C)cc2)NC(=O)N1` (centres undefined), -40.1%. `Cc1cc(C)c(S(=O)(=O)Nc2ccc(C(C)C)cc2)c(C)c1`: the displacement is 7.9%. `CN(C)C(=O)c1cnn(-c2ccccc2)c1NC(=O)c1ccc(Br)cc1`: the displacement is -1%. Under `O=C(Nc1cccc(Cl)c1)c1ccc(-n2cnnn2)cc1` stands -10%; under `COc1cccc(C(=O)N2CCN(CCCc3ccccc3)CC2)c1OC`, 3.6%; under `O=C(Cc1ccccc1)Nc1cc(Cl)c(Cl)cc1Cl`, -6.7%. Under `CC1(O)CC(=O)C(C(=O)c2ccccc2)C(c2cccc([N+](=O)[O-])c2)C1C(=O)c1ccccc1` (centres undefined) stands -2.3%. To `CCc1c(C)sc(NC(=O)c2ccc(OC)c(OC)c2)c1C(=O)OC` belongs 3.2%; to `Cc1ccc(NC2=C(Cl)C(=O)N(c3ccc(Br)cc3)C2=O)c(C)c1`, 7.7%; to `CCOc1ccc2nc(SCC(=O)c3cccc([N+](=O)[O-])c3)sc2c1`, -0.6%.

For `Cc1cccc(C(C)C)c1NC(=O)COc1ccc2c(C)cc(=O)oc2c1`, the displacement stood at 9.4%. `Cc1oc2c(cc(O)c3ccccc32)c1C(=O)c1ccccc1`: the displacement was -1.7%. Under `Oc1ccc(/C=N/Nc2nncc(-c3ccccc3)n2)c(O)c1O` stands 21.1%; under `CC(C)CC(=O)Nc1ccc(I)cc1C(=O)O`, 10.5%; under `CC(=O)c1cccc(NC(=O)CSc2nc(C)cc(C)n2)c1`, -4.9%. Under `O=C(N/N=C/c1ccccn1)c1ccc([N+](=O)[O-])cc1Cl` stands -14.6%.

Regarding `COc1cc(/C=C2/SC(=S)N(CCC(=O)NC34CC5CC(CC(C5)C3)C4)C2=O)cc(OC)c1OC`, the displacement was found to be 11.7%. Take `O=C(COc1ccc2ccccc2c1)Nc1ccc2c(c1)OCCO2`: the displacement is -1.9%. In the case of `O=C1C(c2nc3ccccc3s2)=C(O)c2ccccc21`, the displacement was found to be 10.9%.

Take `CCOC(=O)c1c(C)oc2c(Br)cc(NS(=O)(=O)c3ccccc3)cc12`: the displacement was -0.8%. To `COc1ccc(CC(=O)NNC(=O)c2ccc(Cl)cc2)cc1OC` belongs -0.6%; to `CN1C(=O)NC(=O)/C(=C/c2ccc(-c3cccc(Cl)c3Cl)o2)C1=O`, 74.5%. To `CCCCN1C(=O)/C(=C\c2ccc(N(CC)CC)cc2)SC1=S` belongs -18.9%; to `COc1ccc2nc(NC(C)=O)sc2c1`, 17.4%. Under `Cc1ccc(C(=O)Nc2cccc(F)c2)cc1S(=O)(=O)N1CCCCC1` stands -7.4%; under `COc1cc(C=O)ccc1OC(=O)c1cc(OC)c(OC)c(OC)c1`, 9.2%; under `Cc1cc(/C=C2\C(=O)NC(=O)N(c3ccccc3)C2=O)c(C)n1-c1cccc([N+](=O)[O-])c1`, 9.1%. As for `Cc1ccc(CC2C(=O)N(c3cccc(Cl)c3C)C(=O)C2C)cc1` (centres undefined), the displacement is 0.6%. Under `CC(=O)c1ccc(NC(=O)C2CC(=O)N(c3ccccc3)C2)cc1` (centres undefined) stands -2.6%; under `O=C1S/C(=C\c2ccc(-c3ccc([N+](=O)[O-])cc3)o2)C(=O)N1c1ccccc1`, 70.2%. To `CCP(=O)(CC)c1ccccc1CO` belongs 0.4%. Under `O=C(/C=C/c1ccc(-c2ccc(Br)cc2)o1)c1ccc([N+](=O)[O-])cc1` stands -1.7%; under `Cc1sc(NC(=O)c2cccs2)c(C#N)c1C`, 0.5%. As for `O=Cc1ccc(-c2cccc(OC(F)(F)F)c2)o1`, the displacement is -7.2%.

Regarding `COC(=O)c1ccccc1NC1=NS(=O)(=O)c2ccccc21`, the displacement was found to be 6.9%. For the compound `CC1(C)Cc2c(sc3[nH]c(=S)n(CCc4ccccc4)c(=O)c23)CO1`, the displacement came to 0.1%. Under `CCOc1ccccc1NC(=O)CN(c1cc(C)cc(C)c1)S(=O)(=O)c1ccccc1` stands -1.8%; under `CCOn1c(=O)c(-c2cccs2)[n+]([O-])c2ccccc21`, 121%. To `Cc1c(C(=O)Nc2ccc(OC(F)(F)F)cc2)cccc1[N+](=O)[O-]` belongs -6.4%; to `Cc1ccc(C(C)C)c(OCCNC(=O)c2ccccc2Cl)c1`, 0%. To `CN1C(=O)/C(=C\c2cc(Br)ccc2OCc2ccccc2)SC1=S` belongs -24.5%.

`COc1cccc(CN2CCN(Cc3ccc(C(F)(F)F)cc3)CC2)c1OC`: the displacement is -4.4%. For the compound `CCOC(=O)c1c(NC(=O)c2ccccc2F)sc(C(=O)Nc2ccc(OC)cc2OC)c1C`, the displacement worked out at 9.5%. To `COc1cc(C)c(/C=C2\C(=O)NC(=O)N(Cc3ccccc3)C2=O)cc1C` belongs -6.7%; to `O=C(O)C1C2C=CC(C3CC23)C1C(=O)Nc1ccc(F)cc1` (centres undefined), 10.5%. Under `COC(=O)c1cc(NC(=O)c2ccc(OCc3ccccc3)cc2)cc(C(=O)OC)c1` stands 13.9%. For `COc1ccc(S(=O)(=O)Nc2ccc(Oc3ccccc3)cc2)cc1Br`, the displacement was -7.1%.

For the compound `COc1cccc(CN2CCN(C3CCCCC3OC)CC2)c1OC` (centres undefined), the displacement was -15.9%. To `Nc1nc(-c2ccc(C3CCCCC3)cc2)cs1` belongs -10.2%; to `COc1ccc(/C=C2/SC(=O)N(CC(=O)Nc3ccc(F)c(Cl)c3)C2=O)cc1OC`, 12.3%; to `CCOc1ccc(C(=O)NC(C)(C)C)cc1Cl`, 11.6%. To `Nc1nnnn1/N=C/C=C/c1cccc([N+](=O)[O-])c1` belongs 1.9%. `CCOc1ccccc1NC(=O)CN(Cc1ccccc1)S(=O)(=O)c1ccc(OC)c(OC)c1`: the displacement was -9.5%. To `Cc1ccc(S(=O)(=O)C/N=C(/NC(=S)Nn2cnnc2)c2ccccc2)cc1` belongs -13.5%. To `NC(=O)CNC(=O)c1ccc(C#CC2(O)CCCCC2)cc1` belongs -4.4%; to `O=C(/C=C/c1ccccc1)NC(=S)Nc1cc([N+](=O)[O-])cc(Cl)c1O`, 8.5%; to `COc1cccc(OCCn2ccnc2)c1`, 3.7%.

`Clc1ccc(-c2nc(N3CCCC3)c3ccccc3n2)cc1`: the displacement is 2.5%. To `O=C(COc1ccc([N+](=O)[O-])cc1)Nc1cccc(-c2nc3cc(Cl)ccc3o2)c1` belongs 18.9%. Under `COC(=O)c1ccc(/C=N/NC(=O)CC2=NNC(=O)C2)cc1` stands -23.5%; under `CC(c1ccccc1)c1nnc(NC(=O)c2ccco2)s1` (centres undefined), 12.4%; under `COc1ccc(OCCOCCN2CCC(C)CC2)cc1`, -9.4%. Take `COc1ccccc1/C=N\N1CCN(c2ccccc2)CC1`: the displacement was -5.3%.

As to `O=c1oc(-c2cc([N+](=O)[O-])cc([N+](=O)[O-])c2)nc2cc(Cl)ccc12`, the displacement was -5.7%.

For the compound `CCc1nc2ccccc2n1Cc1ccc([N+](=O)[O-])cc1`, the displacement amounted to 10.4%. Under `CC(C)CN1C(=O)/C(=C/c2ccccc2F)SC1=S` stands 10.4%; under `C#CCSc1nnc2nc(C)cc(C)n12`, 6.9%; under `CC1(C)CC(NC(=O)c2cccc(Br)c2)CC(C)(C)N1`, 4.9%. Under `CC(=O)N1CC23C=CC(CC2CC12CCCCCC2)O3` (centres undefined) stands -0.8%. To `CCOC(=O)c1c(-c2ccc(Br)cc2)csc1NC(=O)c1cccc([N+](=O)[O-])c1` belongs -2.7%; to `CC(C)c1ccc(-c2nc(N)c3c(=O)oc4ccccc4c3n2)cc1`, 9.8%; to `COc1cc(C=C2C(=O)N(C)C(=O)N(C)C2=O)ccc1OCCOc1ccc([N+](=O)[O-])cc1`, 26.1%. Regarding `N#Cc1c(-c2ccc(Cl)cc2)n(Cc2ccccc2)c(=O)n(Cc2ccccc2)c1=O`, the displacement was -0.7%. Under `CCN(CC)CCCCOc1ccccc1[N+](=O)[O-]` stands 6.3%. Under `COc1cc(/C=N/N=C2/NC(=O)C(CC(=O)Nc3ccccc3F)S2)ccc1O` (centres undefined) stands -0.7%.
